Source: the supplement of paper PMC3334620
Whole data set: some 33,000 sequences, median “E-score (-0.5 to 0.5)” near -0.035, cut for the highest 2% near 0.34. This is one part of the list.

Target: T1, Mot3 (UniProt P54785)
T1 sequence: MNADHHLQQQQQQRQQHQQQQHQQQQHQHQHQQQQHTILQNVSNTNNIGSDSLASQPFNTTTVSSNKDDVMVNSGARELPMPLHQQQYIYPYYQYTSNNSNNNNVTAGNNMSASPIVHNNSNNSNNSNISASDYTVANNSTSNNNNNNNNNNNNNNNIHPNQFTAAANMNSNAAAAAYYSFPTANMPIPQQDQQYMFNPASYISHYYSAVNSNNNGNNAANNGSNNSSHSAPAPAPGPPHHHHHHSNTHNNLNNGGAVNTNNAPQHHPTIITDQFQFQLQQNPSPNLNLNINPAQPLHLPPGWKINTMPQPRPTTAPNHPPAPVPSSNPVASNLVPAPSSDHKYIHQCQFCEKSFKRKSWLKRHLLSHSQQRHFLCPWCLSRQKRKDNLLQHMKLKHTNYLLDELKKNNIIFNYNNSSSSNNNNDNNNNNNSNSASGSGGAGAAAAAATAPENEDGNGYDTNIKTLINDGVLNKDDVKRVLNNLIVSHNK
Test: PBM E-score (8-mer binding enrichment) (E-score (-0.5 to 0.5)); higher = stronger / more preferred TF binding; most listed sequences are background and not binding sites
Settings: protein concentration: 200 nM; construct: GST-full length
Outline: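 Full-length yeast transcription factors or their DNA-binding domains, GST-tagged and expressed with PURExpress, were applied at about 100-200 nM to universal all-10-mer Agilent arrays. These arrays had been made double-stranded by primer extension on fresh or once-stripped slides. Detection used fluorescent anti-GST, normalisation used masliner, and E-scores for ungapped eight-base words pooled with reverse complements came from the Universal PBM Analysis Suite.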

Sequence	PBM E-score
ATCGGCTG	-0.355
CACACACG	0.159
AGAGATAA	-0.0375
AATTTCAA	0.0311
ACAAACCT	-0.0491
CTCGTAAC	-0.0177
GTAAGAAC	0.234
ATATAAGG	0.0652
TATCACGA	-0.05
CCATCAGG	-0.179
ACGTCGCA	-0.15
ACTGGGCA	-0.0747
GTAATATA	0.275
CGGGCACG	0.263
AACCTTCT	-0.121
CCGCTAGG	-0.0259
CACCACAA	-0.0277
GTATGCTA	-0.0526
CCGGGAAC	-0.191
ATTCTTAA	0.0836
CAGCACTC	-0.12
ATCGGGTC	-0.22
CGTCTTTA	0.00398
ACCCCTTC	0.129
CATCGCCG	0.0056

Sequence	PBM E-score
CCACCGGC	-0.353
GATTTTGC	0.0889
GCGACACC	-0.167
CCCTTGCC	0.0298
GGCGAGGA	-0.241
AGGATAGG	-0.127
GAGTTATA	0.0732
TCGTCAGA	-0.174
GCCATACC	-0.221
CGGACTAG	-0.368
CCCTTTTA	0.0328
ACCTCCAC	-0.2
GAGGACAC	0.109
ACTGATCT	-0.0322
GCGAGAGA	-0.265
CGTTAGAG	-0.246
ATGTGGTA	0.115
GCTATCCA	-0.141
ACATGCGA	0.18
GCGGCAAC	-0.0624
CCAAGCGC	-0.14
AAAGAAGC	0.146
CCTCCTTC	-0.166
AGTTTACA	0.363
AAATCCAT	0.0755

Sequence	PBM E-score
AGCTACAG	-0.0877
ATGTGAAT	0.211
ACAGCGCA	-0.0713
ATCCGGCG	-0.221
ATACGGAT	0.0904
GAGCTTGC	-0.112
ACAATTGG	-0.256
AACATTTC	0.0869
AAGTAGCC	-0.21
GACGTGGA	-0.152
AGAGAGAC	-0.139
GCGAATTA	0.0208
CTTGCGTC	-0.102
TAAAAGGA	0.189
GGTAATCA	0.187
CCGACTCC	-0.101
CCGACCGA	-0.236
CTACCCCC	-0.27
GAGCCGCA	-0.0359
GAATCTGC	-0.0117
TCGCGGAA	-0.278
AGGTACCG	0.407
CGAATTGC	0.0526
GGACTATA	-0.12
GGACTGCC	-0.0723

Sequence	PBM E-score
ATTAGCAC	0.0726
ATGATACG	0.107
CTCTGGCC	-0.304
GTGACCAA	-0.0735
GAAGTCCC	-0.279
GACGGGAA	-0.0963
GAACCCAC	-0.105
TGTACCAA	0.146
ACCGGCCG	-0.21
AGATTTCG	-0.071
CATTTCTA	-0.092
AGAGTTGA	-0.0955
AGGATACC	-0.085
AGGCACTA	0.484
ATACGTCC	-0.0906
AGCTAGCG	-0.068
AATCAATT	0.122
AGGTGGAA	0.00021
CCTATAAG	0.122
ACAAGTCG	-0.0254
ACAGATCC	-0.0839
AAACACGT	0.318
AGTTTAGA	0.0302
CTTTATCC	0.0587
GTAACGTA	0.21

Sequence	PBM E-score
ATTGGCTA	-0.129
AATTCTAG	0.055
CTCGGCAA	-0.173
CAAGCAAC	0.00864
ACCGAAGA	-0.0606
AACTATCT	-0.0187
GTAATCAA	0.241
CTATTCGC	-0.164
GAGGTACA	0.192
AAGGGGTC	0.101
GCAGACGC	-0.172
CTCGTCGA	-0.0922
GCCTCCCC	-0.0818
AACTGAAT	0.0977
CTGAGCAC	-0.0963
AGTCCTGC	-0.0576
CCCCCTGC	-0.182
CTCGTGCC	0.195
AGGCAATG	0.476
CCCTGGCG	-0.0318
CGGCAAGC	-0.0333
ATTCATAA	0.0131
CCGCACAG	-0.183
ACAAGCCA	0.124
CAGTATCG	-0.174

Sequence	PBM E-score
ATAAACTC	0.00083
ACCTATTA	0.283
CCATGACA	0.0345
CTGCTGGA	-0.139
AGGGTGAG	-0.113
CAACTTGG	0.0338
CGACATTC	0.0467
AGAGTACT	-0.0155
ATATCCTC	-0.218
AGGGTGAC	-0.182
GACCTTAA	-0.272
CTATATCC	-0.039
CTAATGAC	0.027
CCAGAAAA	0.108
CCGTGGTA	-0.142
AACGGCCC	-0.332
CATCATAA	0.107
CAACAACG	0.0989
CCTTTAGA	0.26
CCGATAGA	-0.119
ACGGTATC	-0.0157
ATCGTGAA	-0.0691
CAGTAAAA	0.0622
ATGCGTCG	0.056
TAAGAATA	0.107

Sequence	PBM E-score
AATGATAT	0.0265
GTGCCTAA	0.49
GACGGCTA	-0.197
AGGGACAT	-0.0168
ACAGAGTG	0.0666
AGAATAAA	0.0906
CGCAATGA	0.0425
ATCAGTAA	0.215
GGTCGACC	-0.0894
CTTCTTCA	0.0251
GCAATAGC	0.119
GCAAAATA	0.185
CATGCCCG	-0.00514
CCGTACGG	-0.139
AAAGTATA	0.075
ACAGTGGG	-0.0834
ATAACGAA	0.0582
CTTGTTCA	0.264
CAAGCACA	0.0791
AATAATTG	-0.00621
CAAGGTTA	0.0762
ACCTCCGC	-0.139
CAGACCAA	-0.0946
AGCGACCG	-0.266
CAACAGGG	0.00293

Sequence	PBM E-score
AACGGCGG	-0.117
GAGATCAC	-0.0174
AGAAGTAC	-0.0556
AAAGTAAT	0.178
TGCGCAAA	-0.00825
AACACACA	0.34
GAATTAGC	-0.00518
TCACAGCA	0.0261
TGCCAGCA	-0.0159
GTCGTGAA	-0.033
GCGGTACC	-0.273
AGCGCAAT	-0.0163
AAATTACT	0.138
CTGAATTA	0.108
CTGCTAGC	-0.147
GAAAGTGA	-0.0214
AACCAGAA	0.0813
AGATCTTG	0.027
AACTCTGA	0.00225
ACTAGGAC	-0.199
CCGACCAC	-0.189
GGTTTAAA	0.109
ACGTCGAA	0.13
AAGTCCGT	-0.0474
CAGAAAGC	0.0671

Sequence	PBM E-score
ATGGTCGG	-0.114
AGTACCGC	-0.116
ATTGTCTG	0.0921
GTGCACAA	-0.097
CTGCACTA	-0.0964
AGGCATAA	0.262
CAATATAG	0.13
ACAAAAAG	0.111
CCCCTACC	-0.103
AGCCACAG	-0.229
CGATGCTC	-0.242
TAAACGGA	-0.0263
TCACTGCA	0.00217
ATGCTGAC	0.0559
ACAAGCAT	0.228
GAAGTAGA	-0.043
ACTTTGTA	0.194
CGGCCTAC	-0.202
ATCTACAC	0.375
CCCGATAG	-0.162
CTTACTGA	-0.00516
CGTTATGC	0.0748
CAATTCCA	-0.0471
CGGCTCGC	-0.198
CATTGAAG	0.0812

Sequence	PBM E-score
TTAGCGAA	0.111
GATATGTA	0.283
CCCTACTA	-0.071
CAGCAAAC	-0.0883
CGATACGA	-0.129
ATCATTTG	0.00107
GGGTAATA	0.17
AATAAGAT	-0.0605
TGGGTACA	0.0297
TAGCGTGA	-0.117
ACTTTTAT	-0.00942
GTTGCCGA	0.0551
AAGCGTCG	-0.0805
CCCTCCAG	-0.207
AACCTCGC	-0.118
GACCGAGA	-0.223
ATCGTCCC	-0.215
AGCCTACT	0.113
CCTACGCA	0.223
GCCATCAA	0.161
CGTCTTCC	-0.21
TAACTTGA	0.0969
CTCCATTA	-0.027
ACCACAAA	0.0203
CCTTAGAC	-0.0807

Sequence	PBM E-score
AATATAAT	0.152
CCGACGAC	-0.121
AAGGTGAT	0.0482
CGTGCCAG	-0.22
AGGCAGCA	0.266
CGTCTACA	0.0367
AACGGATG	-0.164
TGGCCGAA	-0.05
GTTCGGTA	0.0592
CTCTCATA	-0.0957
GCCTGCAC	0.169
ACGCGGGA	-0.062
ACCAAATA	0.212
CGCCACGA	-0.288
ACTTTGTG	0.0798
GTTACATA	0.333
ACTTCTGG	-0.0801
ATCTGAAC	-0.219
CAGCATTC	-0.153
AGTCGCTC	-0.141
CCCTAAGC	-0.288
CGTGCGCA	-0.104
CAGGGTGA	-0.136
CAAGTCTG	-0.0796
CCAACATA	0.231

Sequence	PBM E-score
CATGACAC	0.273
CGATGCTA	-0.158
TCAAGTGA	-0.127
CTACGGGC	0.0837
AAGCATTA	0.0708
AATATTGA	-0.0056
CAATGCGC	-0.116
TGGGAAAA	-0.249
TCTCAGAA	-0.0878
CCGTAGCG	-0.31
ATCATCAC	0.0244
CTGGGGAA	-0.0729
TAATTGTA	0.284
AGAACCTC	-0.139
CAGGTAGC	-0.114
CCTCATCC	-0.061
ACACCGTA	0.0343
ACTTCGCA	-0.0318
ACCGACAC	-0.0544
ACCGGGCC	-0.238
AGGTATAC	0.0727
GCTTTGAC	-0.0117
ATGCTCCA	-0.164
GAATTCGC	-0.0535
AAAAGAGG	-0.0765

Sequence	PBM E-score
CGACGCCG	-0.183
GACGTATC	-0.108
CAATCTCG	-0.0776
AAGGACGA	-0.213
TCCAACAA	0.166
ACTAACAA	0.249
TAGTAGGA	-0.0994
GACGTGCA	0.0302
CCCTACCC	-0.232
GCAAACGC	-0.0363
AATATTCG	-0.037
AGGCCTCG	-0.243
AGATGACT	-0.223
ATTTCATA	0.0365
ACTACATG	0.362
CGCGGCAA	-0.11
GTACTTGA	0.0103
CCTCGTAG	0.0397
CGGATACG	-0.0559
ATCTACGG	-0.0777
CAGTCGGC	-0.225
ACAAAGAG	-0.0148
GTCAGGCA	0.469
CCAGCCAA	-0.0801
AGCTCACT	-0.198

Sequence	PBM E-score
AGCTATCG	-0.183
CTTAACGA	-0.0262
CGTGTTGA	0.395
CGTTGCTA	-0.0303
AGTTCGTG	0.0915
AGCGGCTA	-0.132
ATTGCGCC	-0.124
AGACATAG	0.0586
TCAATGAA	0.0702
GGATCCCA	-0.258
GCACCTAC	0.245
TAGACCAA	0.0112
CAGTCAAG	0.0866
AGAACACA	0.225
AGGTTAGC	-0.047
CTATGTGA	0.143
CGAACATA	0.0848
AAAAAATC	0.0876
CAGTGATG	-0.115
